Laboratory results from PubChem BioAssay AID1347417 (National Center for Advancing Translational Sciences (NCATS), 2020).
Among all 120,000 compounds or so, about 5,300 (4.4%) were called active. Inconclusive results, whose numbers are uncertain, are shown with a selection of clear calls. Calls follow the shape of the dose curve; as a rule, active = well fitted inhibition curve with a large enough effect; inconclusive = small, poorly fitted or top-dose-only effect; inactive = no such curve, though single readings can be large or run the other way. Potencies of inconclusive entries are doubtful fits and often do not repeat.

Test: qHTS Primary assay for Inhibitors of Plasmodium falciparum Dd2 growth in vitro; also: nearly all actives have a fitted effect of over 65% in size;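 as to activity, negative = inhibition: plate controls were DMSO vehicle for no effect and reference drug for full effect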
Settings: P. falciparum Dd2 growth, SYBR Green, 72 h; activity, negative = inhibition: at 28.9 µM (top of the series) unless noted; series mostly up to 28.9 µM
Method in brief: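 Infected erythrocytes (Dd2, 0.3% parasitemia, 2.5% hematocrit final) are added to compound in RPMI-1640/Albumax II medium, grown 72 h at 37C in low oxygen, then lysed with saponin/Triton-X containing SYBR Green and read by fluorescence.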
Potency is read from the fitted curve at half-maximal effect; tags tell the direction and shape of the fitted curve.

Row | Structure (SMILES) | Potency | activity, negative = inhibition | outcome
1 | COc1ccc(OC)c(NC(=O)Cc2cccn2-c2ccc(Cl)cc2)c1 | inconclusive: 3.16 µM [inhibitor, partial curve] |  | 
2 | CN1CCc2c([nH]c3ccccc23)C12CCNCC2 | inconclusive: 20 µM [inhibitor, single point] |  | 
3 | CC(C)N1C[C@H](O)C[C@H]1c1nnc2n1CCN(C(=O)COc1ccc(F)cc1)C2 | inconclusive: 17.8 µM [inhibitor, single point] |  | 
4 | COc1ccc(C2c3c(oc4ccccc4c3=O)C(=O)N2Cc2ccc3c(c2)OCO3)cc1 (stereo not given) |  | inactive: 7.74% | 
5 | O=C(NCc1cccc(F)c1)c1cnc2c(c1)N(C(=O)Cc1cccc(C(F)(F)F)c1)CCC2 |  | inactive: 12.9% | 
6 | Cc1ccc(C(=O)CC2(O)C(=O)N(Cc3ccccc3F)c3ccccc32)cc1 (stereo not given) |  | inactive: -15% | 
7 | COc1cccc(NC(=O)CSc2nc3ccc(NC(=O)c4cccs4)cc3s2)c1 | inconclusive: 17.8 µM [inhibitor, single point] |  | 
8 | O=C(NCCC1=CCCCC1)C1(CCO)CCN(c2ncccn2)C1 (stereo not given) |  | inactive: -7.96% | 
9 | CCN(c1ccccc1)c1nnc(NC(=O)Nc2ccc(Br)cc2)s1 |  | inactive: -8.56% | 
10 | Cn1cnc(C(=O)N2CCC(N(Cc3ccccc3)C3CCOCC3)CC2)c1 |  | inactive: -7.48% | 
11 | CCN1c2cc(C(=O)Nc3ccc(Br)c(C)c3)ccc2C(=O)N2CCCCC21 (stereo not given) | active: 5.62 µM |  | 
12 | CC1=C[C@@H](CN2CCC(CO)CC2)[C@H](C(C)C)C[C@H]1Cc1nnc(-c2ccc([N+](=O)[O-])cc2)o1 | active: 3.55 µM |  | 
13 | N#Cc1ccccc1CN1CCC([C@@H]2CNC[C@H]2CO)CC1 | inconclusive: 0.355 µM [inhibitor, full curve, poor fit] |  | 
14 | Cc1oc2ccc(O)c(CN(C)Cc3ccccc3)c2c1C(=O)Nc1ccccc1 | active: 1.12 µM |  | 
15 | O=C(CCCOc1ccccc1)N1CCCC2(CCC(=O)N(CC3CC3)C2)C1 (stereo not given) | inconclusive: 7.08 µM [inhibitor, partial curve, poor fit] |  | 
16 | COc1ccc(CN2CCC3(C2)C(=O)N(c2ccccc2)c2ccccc23)cc1 (stereo not given) | active: 8.91 µM |  | 
17 | O=C1N(Cc2ccccc2F)CCOC12CCN([S+](=O)([O-])c1cccnc1)CC2 |  | inactive: -20.4% [at 44.1 µM] | 
18 | Cc1cc(=O)n(CC(=O)Nc2ccc(F)cc2)c(N2CCc3ccccc3C2)n1 | inconclusive: 3.98 µM [inhibitor, single point] |  | 
19 | CN(Cc1ccccc1)Cc1cc(C[C@@H]2CC[C@H](O)[C@@H](CNC3CCOCC3)O2)no1 | inconclusive: 12.6 µM [inhibitor, single point] |  | 
20 | CCCNc1ncc(CN2CCCC(c3ccc(C(=O)O)cc3)C2)cn1 (stereo not given) |  | inactive: -4.32% | 
21 | Cc1ncsc1CCC(=O)NCc1cc2n(n1)CCN(C(=O)N(C)C)C2 |  | inactive: 9.24% | 
22 | COc1cccc(C2=C(C(C)=O)Sc3nncn3N2C(C)=O)c1 | inconclusive: 17.8 µM [inhibitor, single point] |  | 
23 | CCn1nccc1C(=O)N1CCCC(c2nnnn2C)C1 (stereo not given) |  | inactive: 5.69% | 

Row | Structure (SMILES) | Potency | activity, negative = inhibition | outcome
24 | CNC(=O)[C@H]1C[C@H](Oc2ccccc2)CN1S(=O)(=O)c1ccccc1 |  | inactive: -15.8% | 
25 | CC(=O)N1Cc2ccccc2CC2(CCCN2CC2CCCC2)C1 (stereo not given) | active: 10 µM |  | 
26 | CC(C)c1ccc(CN2CC(Oc3ccccc3C(=O)NC3CC3)C2)cc1 | inconclusive: 1.12 µM [inhibitor, single point] |  | 
27 | CC(=O)NC1(C)CCN(Cc2ccccc2-c2ccc3c(ccn3C)c2)C1 (stereo not given) | inconclusive: 3.16 µM [inhibitor, full curve] |  | 
28 | O=C(O)C1CCc2nnc(C3CCN([S+](=O)([O-])C4CCCC4)CC3)n21 (stereo not given) |  | inactive: -0.745% | 
29 | Cc1ccc(NC(=O)Cn2cc(S(=O)(=O)c3ccc(C)cc3)c(=O)c3cc4c(cc32)OCO4)cc1 | inconclusive: 17.8 µM [inhibitor, single point] |  | 
30 | COc1ccc(C(=O)N2CCC3(CC(c4cccc(C(F)(F)F)c4)=NO3)C2)cc1 (stereo not given) | inconclusive: 10 µM [inhibitor, single point] |  | 
31 | COc1ccc(CC(=O)N2CCC3(CC2)CC(NC(=O)NC(C)C)c2ccccc23)cc1 (stereo not given) | inconclusive: 17.8 µM [inhibitor, single point] |  | 
32 | Cc1ccccc1-n1nc(C)c(CCC(=O)NCC2CCCO2)c1Oc1ccccc1F (stereo not given) |  |  | inactive
33 | CC(=O)N1CCN(c2nc3c(s2)CC(C(=O)Nc2cc(F)cc(F)c2)CC3)CC1 (stereo not given) | active: 4.47 µM |  | 
34 | CN1CCN(C(=O)Cc2c[nH]c3ncc(-c4cccc(F)c4)cc23)CC1 | inconclusive: 12.6 µM [inhibitor, single point] |  | 
35 | CCn1c2c(c(=O)n1-c1ccccc1)CCN(Cc1cncc(OC)c1)C2 |  |  | inactive [at 44.1 µM]
36 | CCOC(=O)C1(Cc2ccc(Cl)cc2)CCN(C(=O)CC2=CCCCC2)CC1 |  | inactive: -11.2% | 
37 | O=C(c1ccc(C(F)(F)F)cc1)N1CCc2nc(-c3ccc(Cl)cc3)nc(-c3ccccc3)c2C1 | inconclusive: 3.16 µM [inhibitor, full curve, poor fit] |  | 
38 | COc1ccc(CN2C(=O)CO[C@H](c3ccc(NS(=O)(=O)c4ccccc4)cc3)[C@H]2CO)cc1 | inconclusive: 11.2 µM [inhibitor, single point] |  | 
39 | CCN(C(=O)C1CCC(CNS(=O)(=O)c2cccc3nsnc23)CC1)c1ccc(C)c(C)c1 (stereo not given) | active: 4.47 µM |  | 
40 | CC(Sc1nc(=O)cc(N)n1CCc1ccccc1)C(=O)Nc1ccc(Cl)cc1 (stereo not given) | inconclusive: 17.8 µM [inhibitor, single point] |  | 
41 | O=c1c2oc3ccccc3c2n(Cc2ccc(Cl)cc2)c(=O)n1Cc1ccco1 | inconclusive: 17.8 µM [inhibitor, partial curve, poor fit] |  | 
42 | CCOC(=O)C1CCN(c2nc3c(S(=O)(=O)c4ccccc4)nnn3c3ccsc23)CC1 | inconclusive: 15.8 µM [inhibitor, single point] |  | 
43 | COC(=O)[C@@H]1Cc2ncn(Cc3ccc(OC)cc3)c2CN1S(=O)(=O)Cc1ccccc1 | inconclusive: 1.41 µM [inhibitor, full curve, poor fit] |  | 
44 | COc1ccc(NC(=O)c2nc(C(O)c3ccccc3F)oc2C)cn1 (stereo not given) | inconclusive: 14.1 µM [inhibitor, single point] |  | 
45 | COc1ccc(CCNC(=O)CC(c2cccc(OC)c2OC)c2c[nH]c3ccccc23)cc1OC (stereo not given) | inconclusive: 11.2 µM [inhibitor, single point] |  | 
